From PubChem BioAssay AID504339 (National Center for Advancing Translational Sciences (NCATS), 2011)
“And” between values parts separate entries of the source, which are not always exact repeats. Equal values may be shown once. The campaign covered roughly 390,000 compounds. About 17,000 (4.4%) were called active. Inconclusive means that the source gave no clear call. Such entries were picked first, then a sample of the others. Calls come from the whole dose curve; as a rule, active = well fitted inhibition curve with a large enough effect; inconclusive = small, poorly fitted or top-dose-only effect; inactive = no such curve, though single readings can be large or run the other way. Potencies of inconclusive entries are doubtful fits and often do not repeat.
% is set by controls: 0 for no effect and ±100 for the full control effect; potency is the fitted concentration of half-maximal effect; tags give direction and shape of the fitted curve.
Note: nearly all actives have a fitted effect of over 50% in size.

The compounds below were run against Lysine-specific demethylase 4A (Homo sapiens) (UniProt O75164) (assay: qHTS Assay for Inhibitors of JMJD2A-Tudor Domain). Conditions: AlphaScreen JMJD2A-Tudor / H3K4me3 peptide binding; activity change, negative = inhibition: at 114 µM (top of the series).
Chain of UniProt O75164 (O75164 whole entry, looked up, the tested form may be a part): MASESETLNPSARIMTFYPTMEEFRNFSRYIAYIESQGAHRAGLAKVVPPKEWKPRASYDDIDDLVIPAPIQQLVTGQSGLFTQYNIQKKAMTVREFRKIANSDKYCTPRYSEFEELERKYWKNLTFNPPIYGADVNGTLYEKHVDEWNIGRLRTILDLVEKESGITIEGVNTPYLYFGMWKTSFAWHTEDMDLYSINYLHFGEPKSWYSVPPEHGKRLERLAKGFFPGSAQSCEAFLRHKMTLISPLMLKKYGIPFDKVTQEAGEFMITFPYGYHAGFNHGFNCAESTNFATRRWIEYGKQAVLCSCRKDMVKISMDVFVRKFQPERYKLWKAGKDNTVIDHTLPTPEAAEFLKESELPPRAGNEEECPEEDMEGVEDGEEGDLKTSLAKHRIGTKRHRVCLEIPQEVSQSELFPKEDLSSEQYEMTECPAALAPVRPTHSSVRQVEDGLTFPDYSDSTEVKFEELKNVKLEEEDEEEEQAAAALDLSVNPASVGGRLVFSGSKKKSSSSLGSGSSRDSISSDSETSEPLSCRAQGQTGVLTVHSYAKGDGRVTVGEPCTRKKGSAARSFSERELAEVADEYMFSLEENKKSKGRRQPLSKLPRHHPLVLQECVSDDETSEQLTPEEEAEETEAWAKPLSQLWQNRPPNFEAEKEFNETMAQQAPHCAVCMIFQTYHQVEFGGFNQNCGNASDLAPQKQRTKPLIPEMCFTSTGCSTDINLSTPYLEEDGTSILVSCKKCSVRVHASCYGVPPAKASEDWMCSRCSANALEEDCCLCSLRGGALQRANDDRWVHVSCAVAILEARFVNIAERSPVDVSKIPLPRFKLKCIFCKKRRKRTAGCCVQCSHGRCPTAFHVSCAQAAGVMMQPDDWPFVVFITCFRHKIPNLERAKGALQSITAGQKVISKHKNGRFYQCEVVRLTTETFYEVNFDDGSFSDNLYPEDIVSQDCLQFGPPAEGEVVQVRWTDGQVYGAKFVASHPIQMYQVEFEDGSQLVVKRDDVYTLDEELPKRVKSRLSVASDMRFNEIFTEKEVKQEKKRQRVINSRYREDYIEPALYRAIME
In the case of `Cc1cccc(C)c1NC(=O)CN(C)C(=O)c1ccc2nc[nH]c2c1`, the “activity change, negative = inhibition” value is reported as inactive: -21.4%. For `CCOc1ccc(CN(CCc2ccc3c(c2)OCO3)Cc2cc(OC)cc(OC)c2)cc1`, the Potency was active: 3.98 µM. `O=C1NC(Cc2ccc(O)cc2)c2nc3ccc(F)cc3c(=O)n2-c2cc(Cl)ccc21` (configuration not stated) was tested, and the Potency was inconclusive: 56.2 µM [inhibitor, partial curve]. With `Cc1cc(=O)[nH]c2nnc(SCc3cccc(C(F)(F)F)c3)n12` the “activity change, negative = inhibition” value was inactive: -11.4%. For `O=C(CSc1nccn1Cc1ccco1)Nc1ccc(OC(F)(F)F)cc1`, the Potency was inconclusive: 56.2 µM [inhibitor, partial curve]. In the case of `Cn1c(N)c(C(=O)COC(=O)C2(c3ccc(Cl)cc3)CCCC2)c(=O)n(C)c1=O`, the Potency is reported as active: 3.16 µM. With `CSc1n[nH]c(NCc2ccc(C)cc2)n1` the Potency was inconclusive: 100 µM [inhibitor, single point]. For `CCOC(=O)C1CCN(S(=O)(=O)c2ccc3c(c2)N(C(C)=O)CC(C)S3)CC1` (configuration not stated), the Potency was inconclusive: 39.8 µM [inhibitor, single point]. `C/C(=N\NC(=O)C(N)=O)c1cccc([N+](=O)[O-])c1` was tested, and the Potency was inconclusive: 14.1 µM [inhibitor, partial curve, poor fit]. For `CC(NC(=O)COc1ccccc1F)C1CC2CCC1C2` (configuration not stated), the “activity change, negative = inhibition” value was inactive: 6.88%. For `CCCC1=NN(C(=O)Cc2ccc([N+](=O)[O-])cc2)C(O)(C(F)(F)F)C1` (configuration not stated), the “activity change, negative = inhibition” value was inactive: -25.4%. With `O=C(Nc1ccc(-n2nncc2-c2ccco2)cc1)c1ccc(F)cc1` the Potency was inconclusive: 56.2 µM [inhibitor, partial curve]. For `O=c1c2ccccc2[nH]c(=S)n1CCN1CCN(Cc2ccccc2)CC1`, the Potency was inconclusive: 89.1 µM [inhibitor, partial curve]. `CN(C)c1nc(C(=O)O)nc(N2CCOCC2)n1` was tested, and the Potency was active: 31.6 µM. In the case of `c1ccc2c(c1)CCCN2Cc1nnnn1CC1CCCO1` (configuration not stated), the “activity change, negative = inhibition” value is reported as inactive: -9.01%. `COc1ccc(C)cc1NC(=S)NC(C)c1ccc(OC)c(OC)c1` (configuration not stated) was tested, and the Potency was inconclusive: 89.1 µM [inhibitor, single point]. With `CN(CC(=O)Nc1ccc(Cl)c(C(F)(F)F)c1)C(=O)Cc1c[nH]c2ccccc12` the Potency was inconclusive: 56.2 µM [inhibitor, partial curve]. With `COc1cccc(N2CCN(Cc3ccsc3)CC2)c1` the “activity change, negative = inhibition” value was inactive: -35.2%. `CCC(=O)Nc1ccc(Oc2ccc(NC(=O)CC)c(NC(=O)CC)c2)cc1` was tested, and the Potency was inconclusive: 79.4 µM [inhibitor, single point]. `C=CC1C(N2CCOCC2)C(C)(C)S1(=O)=O` (configuration not stated) was tested, and the activity change, negative = inhibition was inactive: -15.1% [at 11.4 µM]. In the case of `CC1S/C(=N/N=C2CCCCC2)NC1=O` (configuration not stated), the Potency is reported as inconclusive: 89.1 µM [inhibitor, single point]. In the case of `CC(C)[C@H](NC(=O)Cc1ccccc1)C(=O)OCc1cc(=O)n2c(n1)sc1ccccc12`, the Potency is reported as inconclusive: 3.16 µM [inhibitor, full curve]. `NC(=S)N=Nc1c(O)n(Cc2ccccc2)c2ccccc12` was tested, and the “activity change, negative = inhibition” value was inactive: -20.5%. For `Cc1cccc(NC(=O)C(=O)NCCc2c[nH]c3ccccc23)c1C`, the Potency was inconclusive: 20 µM [inhibitor, partial curve]. With `O=C(O)c1cc(N/N=C/c2cccnc2)ccc1Cl` the “activity change, negative = inhibition” value was inactive: -8.16%. For `CCCC(=O)Nc1nnc(C2CCCO2)s1` (configuration not stated), the Potency was inconclusive: 100 µM [inhibitor, single point]. In the case of `Cn1c(CCc2nc3ccccc3[nH]2)nnc1SCC#N`, the Potency is reported as inconclusive: 7.08 µM [inhibitor, partial curve]. In the case of `CCOC(=O)c1[nH]c(=S)n(Cc2ccccc2)c1C(=O)OCC`, the Potency is reported as active: 3.16 µM. `CCN(CC)CCCN(C(=O)c1ccc(F)cc1)c1nc(-c2ccc(OC)cc2)cs1` was tested, and the Potency was inconclusive: 56.2 µM [inhibitor, partial curve]. With `COc1ccc(-c2cc(C(F)(F)F)n3nc(C(=O)O)nc3n2)cc1` the Potency was inconclusive: 89.1 µM [inhibitor, partial curve]. `Cc1cccc(/C=C2\Oc3cc(OS(C)(=O)=O)ccc3C2=O)c1` was tested, and the Potency was inconclusive: 35.5 µM [inhibitor, partial curve]. `CCOc1ccc(NCCC(O)c2ccc(F)cc2)cc1` (configuration not stated) was tested, and the Potency was inconclusive: 56.2 µM [inhibitor, partial curve]. For `C=CCc1cc(Cl)ccc1OCCN1CC(C)OC(C)C1` (configuration not stated), the Potency was active: 2.24 µM. `COc1ccccc1N1CCN(S(=O)(=O)c2ccc(-c3coc(C)n3)cc2)CC1` was tested, and the Potency was inconclusive: 56.2 µM [inhibitor, partial curve, poor fit]. In the case of `COc1ccc(CNS(=O)(=O)c2cn(C)c(=O)n(C)c2=O)cc1`, the “activity change, negative = inhibition” value is reported as inactive: 2.92%. In the case of `Cc1ccccc1Nc1nc(N)nc(COC(=O)c2cccc(S(=O)(=O)N(C)c3ccccc3)c2)n1`, the Potency is reported as inconclusive: 22.4 µM [inhibitor, single point]. `O=C(O)C1=C(Nc2ccccc2)OCC1=O` was tested, and the Potency was inconclusive: 89.1 µM [inhibitor, single point]. `O=C1CC(c2ccco2)CC2=C1C(c1ccc(O)cc1)n1nc(C(F)(F)F)nc1N2` (configuration not stated) was tested, and the Potency was active: 56.2 µM. For `COc1cc(N=c2ssnc2Cl)c(OC)cc1Cl`, the Potency was active: 28.2 µM and active: 25.1 µM. For `Cc1ccc(N2CCN(C(=O)c3cn(C)c4ccc(S(=O)(=O)N5CCC(C)CC5)cc4c3=O)CC2C)cc1` (configuration not stated), the Potency was inconclusive: 56.2 µM [inhibitor, partial curve]. In the case of `COC(=O)C(NNc1ccccc1C)(NC(=O)c1ccc(F)cc1)C(F)(F)F` (configuration not stated), the Potency is reported as inconclusive: 25.1 µM [inhibitor, partial curve]. In the case of `CCC(C)NCCOCCOc1ccc(F)cc1` (configuration not stated), the Potency is reported as active: 3.16 µM. `Cc1cc(C(=O)CSc2nnnn2C)c(C)n1-c1ccc2c(c1)OCCO2` was tested, and the Potency was inconclusive: 44.7 µM [inhibitor, partial curve]. With `O=C(COc1cccnc1[N+](=O)[O-])c1ccc(Cl)s1` the Potency was active: 39.8 µM. `O=C(CCN1C(=O)/C(=C/c2cccs2)SC1=S)Nc1ccc(C(=O)O)c(O)c1` was tested, and the “activity change, negative = inhibition” value was inactive: 7.39%. In the case of `O=C(COC(=O)c1ccccc1O)Nc1ncc(Cl)cc1Cl`, the Potency is reported as inconclusive: 50.1 µM [inhibitor, partial curve]. `Cc1ccc(NC(=O)N/C=C/c2ccco2)c(C)c1` was tested, and the Potency was inconclusive: 50.1 µM [inhibitor, full curve].
